Laboratory results as given in PubChem BioAssay AID2675 (National Center for Advancing Translational Sciences (NCATS), 2010).
In all, about 280,000 compounds went through this assay and about 100 (0.036%) were called active. Inconclusive results, whose numbers are uncertain, are shown with a selection of clear calls. Calls follow the shape of the dose curve; as a rule, active = well fitted inhibition curve with a large enough effect in the signal ratio, with a control signal flat (not every such curve was filed as active); inconclusive = small, poorly fitted or top-dose-only effect, or effect the other way, or a change in a side signal; inactive = no such curve, though single readings can be large or run the other way; the % refers to the signal ratio. Potencies of inconclusive entries are doubtful fits and often do not repeat. “Side channel” marks fits to a control or component signal instead of the main read-out.

Target: Muscleblind-like protein 1 (Homo sapiens) (UniProt Q9NR56)
UniProt Q9NR56, sequence (Q9NR56 whole entry, looked up): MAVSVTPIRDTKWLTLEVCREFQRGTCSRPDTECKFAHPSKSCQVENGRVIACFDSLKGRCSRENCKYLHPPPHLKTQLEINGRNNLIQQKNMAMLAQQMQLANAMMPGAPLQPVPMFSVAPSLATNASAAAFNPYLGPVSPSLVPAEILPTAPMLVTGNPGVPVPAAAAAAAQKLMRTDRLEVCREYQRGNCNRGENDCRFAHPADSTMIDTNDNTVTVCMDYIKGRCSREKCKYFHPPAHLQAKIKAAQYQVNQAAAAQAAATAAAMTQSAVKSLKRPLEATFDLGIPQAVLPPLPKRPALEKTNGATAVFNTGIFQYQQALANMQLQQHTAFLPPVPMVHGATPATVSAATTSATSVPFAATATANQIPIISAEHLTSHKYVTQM
Assay: qHTS Assay for Inhibitors of MBNL1-poly(CUG) RNA binding
Settings: TR-FRET MBNL1-His/biotin-(CUG)12 binding, 665/545 ratio; activity change, negative = inhibition: at 57.5 µM (top of the series)
Method in brief: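 Inhibition of protein-RNA binding appears as loss of TR-FRET between terbium anti-His antibody on MBNL1-His and streptavidin-XL665 on biotin-(CUG)12. Activity is normalized to buffer-only and uninhibited-complex controls.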
% is scaled to controls: 0 for no effect and ±100 for the full control effect; potency is read from the fitted curve at half-maximal effect; tags tell the direction and shape of the fitted curve or compound fluorescence and quenching.

| Structure (SMILES) | activity change, negative = inhibition | Potency |
| --- | --- | --- |
| Cc1ccc(C(=O)NC(=S)N2CCN(c3cc(C)ccc3C)CC2)cc1 | inactive: -3.21% |  |
| c1ccc(Cn2c(-c3ccco3)nc3nc4ccccc4nc32)cc1 |  | inconclusive: 14.1 µM [quencher, side channel, partial curve] |
| COc1ccc(N2C(=O)c3cccc4cccc(c34)C2=O)nn1 |  | inconclusive: 12.6 µM [quencher, side channel, partial curve] |
| CCOC(=O)c1cnc(-n2nc(C)cc2C)nc1Nc1ccc2c(c1)OCO2 | inactive: -5.52% |  |
| O=C(CSc1nc(Cc2ccccc2)nc2ccccc12)Nc1nc2c(s1)CCCC2 |  | inconclusive: 39.8 µM [quencher, side channel, single point] |
| Cc1ccc(CN=c2c([N+](=O)[O-])nn(-c3ccc(Cl)cc3)n2O)cc1 |  | inconclusive: 7.94 µM [quencher, side channel, full curve] |
| Cc1ccc(-c2cc(-c3ccc(F)cc3)n[nH]2)c(O)c1 | inactive: -1.65% |  |
| CCc1nc(NCc2ccccc2)c(C#N)c2c1CCCC2 | inactive: -1.83% |  |
| CCOC(=O)c1cc2c(=O)n3cccc(C)c3nc2n(CC(C)C)c1=NC(=O)c1ccco1 |  | inconclusive: 10 µM [quencher, side channel, partial curve, poor fit] |
| Fc1ccccc1/C=C1\CCCC2=C1Nc1ncnn1C2c1ccccc1F (stereo unspecified) |  | inconclusive: 20 µM [quencher, side channel, partial curve] |
| C=CCNC1=C(Cl)C(=O)N(c2ccccc2Cl)C1=O |  | inconclusive: 17.8 µM [quencher, side channel, partial curve] |
| C/C(=N\NC(=O)c1cccc(F)c1)c1ccc(Br)s1 | inactive: 14.8% |  |
| Cc1ccccc1NC(=S)Nc1cccc2cnccc12 |  | inconclusive: 20 µM [quencher, side channel, partial curve] |
| CCNC(=O)CC1C(=O)N(c2ccccc2)C(=O)N1CCOC (stereo unspecified) | inactive: -4.77% |  |
| C=C(C)/C=N/NC(=S)Nc1ccc(S(=O)(=O)N2CCOCC2)cc1 | inactive: 18.4% |  |
| O=C(NC(=S)Nc1ccc([N+](=O)[O-])cc1O)C1CCCCC1 |  | inconclusive: 8.91 µM [quencher, side channel, partial curve] |
| NC(=S)N/N=C/c1ccc(-c2ccccc2)o1 |  | inconclusive: 8.91 µM [quencher, side channel, partial curve] |
| CCCCC(=O)Nc1c2c(nn1-c1ccc([N+](=O)[O-])cc1)CS(=O)(=O)C2 |  | inconclusive: 15.8 µM [quencher, side channel, partial curve] |
| CC(=O)c1c(C)oc2c1C(=O)c1ccccc1C2=O | inactive: 25.4% |  |
| O=C(CSc1nc2[nH]ncc2c(=O)[nH]1)N1CCCCC1 |  | inconclusive: 0.282 µM [fluorescent, side channel, partial curve] |
| CCN1CCN(CCCNC(=O)c2cc3cc4ccc(OC)cc4nc3o2)CC1 |  | inconclusive: 15.8 µM [quencher, side channel, partial curve] |

| Structure (SMILES) | activity change, negative = inhibition | Potency |
| --- | --- | --- |
| COc1ccccc1/C=C/c1nc(S(=O)(=O)c2ccccc2)c(NCCN(C)C)o1 |  | inconclusive: 25.1 µM [quencher, side channel, partial curve] |
| NC(=O)[C@@H]1CCCNc2c(F)cc([N+](=O)[O-])cc2C(=O)N[C@@H](CCC(=O)O)C(=O)N[C@@H](CO)C(=O)N1 |  | inconclusive: 12.6 µM [quencher, side channel, partial curve] |
| CC(C)N1CCC(N2CCN(Cc3ccc4nonc4c3)CC2CCO)CC1 (stereo unspecified) |  | inconclusive: 15.8 µM [quencher, side channel, partial curve] |
| O=C(N/N=C/c1ccc2ncccc2c1)c1ccco1 |  | inconclusive: 22.4 µM [quencher, side channel, partial curve] |
| O=C(COc1cccc([N+](=O)[O-])c1)NN1C(=O)c2ccccc2C1=O |  | inconclusive: 15.8 µM [quencher, side channel, partial curve] |
| O=C(O)CCn1cc(/C=C\C(=O)c2ccc(Cl)cc2)c(-c2cccc(Br)c2)n1 | inactive: -7.63% |  |
| Nc1[nH]ncc1N=Nc1ccc(Cl)cc1 |  | inconclusive: 10 µM [quencher, side channel, partial curve] |
| N#Cc1c(/N=C\c2ccc(O)c([N+](=O)[O-])c2)sc2c1CCCC2 |  | inconclusive: 31.6 µM [quencher, side channel, single point] |
| Cc1ccc(/C=N/NC(=O)Cc2ccc(O)cc2)s1 |  | inconclusive: 25.1 µM [quencher, side channel, single point] |
| O=C(O)c1cccc(N2C(=O)c3cccc4c(Cl)ccc(c34)C2=O)c1 |  | inconclusive: 39.8 µM [quencher, side channel, single point] |
| CCOc1ccc(NC(=S)NC(=O)c2c(Br)cnn2C)c([N+](=O)[O-])c1 | inactive: 13.7% [at 11.5 µM] |  |
| Nc1ccc2nc3c(=O)n(CCc4ccccc4)c(=O)[nH]c3nc2c1 |  | inconclusive: 10 µM [quencher, side channel, partial curve] |
| O=C1c2ccccc2-c2onc3ccc(NCCCn4ccnc4)c1c23 |  | inconclusive: 14.1 µM [quencher, side channel, partial curve] |
| COC(=O)[C@@]1(Cc2ccccc2)[C@@H]2C(=CC(=O)[C@H]2CC(=O)C(=O)N(C)C)CN1C(=O)c1ccccc1 | inactive: 3.31% |  |
| Cc1cc(C)cc(NC(=O)[C@H](NC(=O)[C@@H]2Cc3ccccc3CN2)c2ccccc2)c1 | inactive: 1.81% |  |
| O=C(CCCC(=O)Nc1cccnc1)Nc1cccnc1 |  | inconclusive: 63.1 µM [inhibitor, single point] |
| COc1cc(Cl)c(C)cc1NC(C)C(=O)Nc1cc(C(F)(F)F)ccc1N1CCOCC1 (stereo unspecified) |  | inconclusive: 20 µM [quencher, side channel, single point] |
| Cc1ccc(-n2c(C)cc(C(=O)CSc3n[nH]c(N)n3)c2C)cc1 |  | inconclusive: 3.55 µM [fluorescent, side channel, single point] |
| Cc1cc2nc(-c3ccc[nH]c3=O)[nH]c2cc1C |  | inconclusive: 12.6 µM [quencher, side channel, partial curve] |
| CCCc1[nH]nc2c1C(c1ccc(OC)c(Cn3nc(C)c(Br)c3C)c1)C(C#N)=C(N)O2 (stereo unspecified) |  | inconclusive: 31.6 µM [quencher, side channel, single point] |
| COC(=O)c1sccc1NC(=O)CSc1ccccc1NS(=O)(=O)c1ccc(Br)cc1 |  | inconclusive: 6.31 µM [quencher, side channel, single point] |

| Structure (SMILES) | activity change, negative = inhibition | Potency |
| --- | --- | --- |
| COc1ccc(C2C(C(=O)c3ccco3)=C(O)C(=O)N2c2nnc(C)s2)cc1 (stereo unspecified) |  | inconclusive: 28.2 µM [quencher, side channel, single point] |
| CC1CN(c2cc3nccnc3cc2F)CC(C)O1 (stereo unspecified) |  | inconclusive: 20 µM [quencher, side channel, partial curve] |
| CC(=O)NC1C(OCc2ccccc2)OC(CO)C(OC(C)=O)C1OC(C)=O (stereo unspecified) |  | inconclusive: 2.51 µM [fluorescent, side channel, partial curve] |
| COc1ccc(NC(=O)C(=O)c2cn(CC(=O)N3CCOCC3)c3ccccc23)cc1OC |  | inconclusive: 20 µM [quencher, side channel, partial curve] |
| O=C(NCc1ccco1)c1ccc2c(c1)C(=O)N(C1CCCCC1)C2=O |  | inconclusive: 20 µM [quencher, side channel, partial curve] |
| Cc1ccc(-c2cc(-c3ccc4c(c3)OCO4)c(C#N)c(N)n2)o1 |  | inconclusive: 17.8 µM [quencher, side channel, partial curve] |
| CNc1ccc(C(=O)c2ccccc2C(=O)O)cc1[N+](=O)[O-] |  | inconclusive: 14.1 µM [quencher, side channel, partial curve] |
| Cc1cc(Cl)ccc1OCC(=O)NNC(=O)c1ccco1 | inactive: -2.77% |  |
| CCn1cc(CNc2nc3nonc3nc2N2CCCCC2)cn1 |  | inconclusive: 5.01 µM [quencher, single point] |
| Cc1ccnc(NC(=O)c2cc3ccccc3oc2=O)c1 |  | inconclusive: 35.5 µM [quencher, side channel, partial curve] |
| O=C(Nc1cccc([N+](=O)[O-])c1)C1COc2ccccc2O1 (stereo unspecified) |  | inconclusive: 12.6 µM [quencher, side channel, partial curve] |
| O=C(NC1CCCCCC1)c1ccc(=O)n(Cc2ccccc2)n1 | inactive: 3.61% |  |
| CCN(CC)c1ccc(/C=N/Nc2nc(C)cc(=O)[nH]2)cc1 |  | inconclusive: 25.1 µM [quencher, side channel, partial curve] |
| COc1ccc(-c2cnc(N)n2CC2CCCO2)cc1 (stereo unspecified) |  | inconclusive: 0.631 µM [quencher, side channel, single point] |
| CN(C(=O)CCc1nnc(CCCCc2ccccc2)o1)C1CC(C)(C)NC(C)(C)C1 | inactive: -10.6% |  |
| O=C(Nc1cccnc1)c1ccc([N+](=O)[O-])cc1Cl |  | inconclusive: 14.1 µM [quencher, partial curve] |
| COc1ccc(CCNC(=S)Nc2cccc(C)c2C)cc1 | inactive: 3.44% |  |
| COc1ccc(CC(=O)N2CCc3ccccc32)cc1 |  | inconclusive: 39.8 µM [inhibitor, single point] |
| CC(=O)NS(=O)(=O)c1ccc(NC(=O)c2ccc(Cl)cc2[N+](=O)[O-])cc1 |  | inconclusive: 25.1 µM [quencher, side channel, partial curve] |
